Measured values reported in PubChem BioAssay AID504832 (National Center for Advancing Translational Sciences (NCATS), 2011).
Among all 310,000 compounds or so, about 18,000 (5.8%) were called active. Inconclusive results, whose numbers are uncertain, are shown with a selection of clear calls. Calls come from the whole dose curve; as a rule, active = well fitted inhibition curve with a large enough effect; inconclusive = small, poorly fitted or top-dose-only effect, or another doubt; inactive = no such curve, though single readings can be large or run the other way. No potency is given beside an inconclusive call; the fits are too rough.

Assay: Primary qHTS for delayed death inhibitors of the malarial parasite plastid, 48 hour incubation
Details: P. falciparum luciferase growth in erythrocytes; series mostly up to 28.7 µM; activity change, negative = inhibition: at the top concentration
Summary of the method: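 A one-generation exposure of luciferase-tagged malaria parasites in RPMI 1640/Albumax erythrocyte culture, 37 C and 5% CO2. Inhibition is inferred from decreased luminescence after adding detection reagent.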
% is set by controls: 0 for no effect and ±100 for the full control effect; potency is the fitted concentration of half-maximal effect; tags give direction and shape of the fitted curve.

| Structure (SMILES) | Potency | activity change, negative = inhibition |
| --- | --- | --- |
| Cc1noc(C)c1CSc1nnc(-c2ccccc2F)n1CCc1ccccc1 | inconclusive [inhibitor, partial curve, poor fit] |  |
| COCCn1c(SCC(=O)Nc2cc(C(C)(C)C)nn2-c2ccccc2)nnc1-c1ccncc1 | inconclusive [inhibitor, partial curve, poor fit] |  |
| COc1ccc(C(C(=O)NC2CCCCC2)N(C(=O)Cc2c[nH]c3ccccc23)c2ccccc2C)cc1OC (centres undefined) | inconclusive [inhibitor, partial curve] |  |
| CC1(C)Oc2ccc(C(=O)NC3CCCCC3)cc2N(CC#N)C1=O | inconclusive [inhibitor, partial curve, poor fit] |  |
| CN(C)c1ccc(-c2nnn(CC(=O)N3c4ccccc4CCc4ccccc43)n2)cc1 | active: 2.08 µM |  |
| c1ccc(Cn2nnnc2C(c2cccs2)N2CCc3ccccc3C2)cc1 (centres undefined) | inconclusive [inhibitor, single point] |  |
| CCN1CCN(c2cc(C)c3cc(NC(=O)c4cc(OC)cc(OC)c4)ccc3n2)CC1 | inconclusive [inhibitor, full curve] |  |
| CCOC(=O)N1CCC(n2c(SCC(=O)Nc3nccs3)nc3ccsc3c2=O)CC1 | inconclusive [inhibitor, full curve] |  |
| O=S(Cc1cc(Sc2ccccc2)nc(-c2ccccc2)n1)c1ccccc1 (centres undefined) | inconclusive [inhibitor, single point] |  |
| COc1ccc2cc(/C=N/NC(=O)c3ccc(CN(c4ccc(C)c(C)c4)S(C)(=O)=O)cc3)c(Cl)nc2c1 | inconclusive [inhibitor, single point] |  |
| O=C(C1=COCCO1)N(Cc1nnc(-c2ccccc2Cl)o1)C1CC1 | inconclusive [inhibitor, single point] |  |
| O=c1c(Cc2ccc(F)cc2)c(O)ccn1Cc1cccc(Cl)c1 | active: 11.7 µM |  |
| N#CCSc1ccccc1NC(=O)COc1ccc(-c2nnco2)cc1 | inconclusive [inhibitor, partial curve, poor fit] |  |
| COc1cc(C(=O)OC(C)C(=O)NCC2CCCCC2)cc(NC(=O)c2ccco2)c1OC (centres undefined) | inconclusive [inhibitor, partial curve] |  |
| CCN(Cc1ccc2c(c1)OCO2)C(=O)CSc1ncnc2sccc12 | inconclusive [inhibitor, single point] |  |
| CN1/C(=C\C(=O)CSc2nnc(N)s2)C(C)(C)c2ccccc21 |  | inactive: 4.32% |
| Cc1cccc(Cl)c1OCCCn1ccnc1 | inconclusive [inhibitor, single point] |  |
| Cc1ccccc1-n1nc2c(c1NC(=O)c1ccc(S(=O)(=O)N(C)C)cc1)CSC2 | inconclusive [inhibitor, single point] |  |
| COC(=O)c1ccccc1NC(=O)CCCCCn1nnc2ccccc2c1=O |  | inactive: -9.2% |
| CC(C)c1cc(-c2cc(C(=O)NCc3ccccc3)on2)nc(NC2CCCC2)n1 | inconclusive [inhibitor, single point] |  |
| COc1cccc(CN(C)C(=O)C2CCC(=O)N(Cc3cccc(F)c3)C2)c1 (centres undefined) |  | inactive: -9.24% |
| Cc1ccc(S(=O)(=O)N2CCC(N3CCN(C)CC3)CC2)cc1Cl |  | inactive: -8.14% |
| CCOc1cccc(C2C(C#N)=C(N)Oc3cc(C)[nH]c(=O)c32)c1OCC (centres undefined) |  | inactive: -9.9% |

| Structure (SMILES) | Potency | activity change, negative = inhibition |
| --- | --- | --- |
| CC(=O)N1CCN(C(=S)c2ccc(-c3ccc(Cl)cc3)o2)CC1 |  | inactive: 0% |
| O=C(Nc1ccc(F)cc1)c1ccc(Br)c(S(=O)(=O)N2CCOCC2)c1 | inconclusive [inhibitor, partial curve, poor fit] |  |
| O=C(NNC(=O)c1ccc[nH]1)c1cccc(C(F)(F)F)c1 | inconclusive [inhibitor, full curve, poor fit] |  |
| COc1ccccc1CN1CCC(n2nccc2NC(=O)CCc2ccccc2)CC1 | inconclusive [inhibitor, partial curve] |  |
| CS(=O)(=O)N1CCN(c2ccc(C(=O)NC34CC5CC(CC(C5)C3)C4)cc2[N+](=O)[O-])CC1 | inconclusive [inhibitor, partial curve, poor fit] |  |
| C=CCNc1nc(-c2cccs2)c(CC(=O)O)s1 |  | inactive: 0.756% |
| Cc1cccn2c(=O)nc(SCC(=O)Nc3ccc4c(c3)OCO4)nc12 | inconclusive [inhibitor, single point] |  |
| CCOc1cccc(CNCCc2c(C)[nH]c3ccc(OC(F)(F)F)cc23)c1O | active: 1.85 µM |  |
| Fc1cccc(F)c1-c1nc(-c2ccncc2)no1 |  | inactive: 109% |
| COc1ccc(CCN(C)C(=O)c2oc3ccccc3c2C)cc1OC | inconclusive [inhibitor, single point] |  |
| O=[N+]([O-])c1cnn(-c2nc(-c3cccs3)cc(C(F)(F)F)n2)c1 | active: 10.4 µM |  |
| O=[N+]([O-])c1ccccc1/C=N/NC1=NS(=O)(=O)c2ccccc21 | inconclusive [inhibitor, single point] |  |
| Oc1ccc(/C=N/NC(=S)Nc2cccnc2)cc1O |  | inactive: 37.3% |
| O=C1CN(c2ccc(Cl)cc2)C2(CCCCC2)S1 |  | inactive: -7.02% |
| COc1cccc(C(=O)CC(C(=O)O)c2ccc(Cl)cc2)c1 (centres undefined) |  | inactive: 6.14% |
| CCN1C(=NCc2ccccc2)N[C@@H](c2ccccc2)[C@H](C(=O)OC)[C@H]1C | inconclusive [inhibitor, single point] |  |
| CC(C)NC(=O)Nc1cccc(Cl)c1 |  | inactive: -5.89% |
| COc1ccc(-n2nc3c(N4CCC(C(=O)NCCc5ccco5)CC4)nnc(C)c3c2C)cc1 | inconclusive [inhibitor, single point] |  |
| O=C(CSc1n[nH]c(-c2cccnc2)n1)OC1CCCCC1 |  | inactive: -13.7% |
| CCNc1nnc(SCC(=O)c2cc(C)n(C3CC3)c2C)s1 | inconclusive [inhibitor, partial curve] |  |
| CCOc1ccc(S(=O)(=O)NCC(c2ccc3c(c2)OCO3)N2CCN(C)CC2)cc1 (centres undefined) |  | inactive: -29.2% |
| Cc1cccc(C)c1NC(=O)CNC(=O)c1ccc(N2CCCC2)c([N+](=O)[O-])c1 | inconclusive [inhibitor, single point] |  |
| O=C(CCCCCNC(=O)N1CCn2c1nc1ccccc12)NCc1ccc(F)cc1 | inconclusive [inhibitor, single point] |  |

| Structure (SMILES) | Potency | activity change, negative = inhibition |
| --- | --- | --- |
| CCN(CC)CCOC(=O)C12CC3CC(CC(C3)C1)C2 |  | inactive: 12% |
| CCc1ccccc1S(=O)(=O)Cc1ccc(C(=O)NCc2cccs2)o1 | inconclusive [inhibitor, full curve, poor fit] |  |
| Cc1cccn2c(=O)c(/C=C(\C#N)C(=O)NC3CCS(=O)(=O)C3)c(N3CCC(C)CC3)nc12 (centres undefined) | inconclusive [inhibitor, single point] |  |
| Fc1ccc(-n2cc(CNCCc3ccncc3)c(-c3ccccc3Cl)n2)cc1 | inconclusive [inhibitor, single point] |  |
| CCCCC(=O)N=c1sc2c(OC)ccc(OC)c2n1C |  | inactive: -19.8% |
| O=C(/C=C/c1ccc(S(=O)(=O)N2CCOCC2)cc1)N1CCN(c2ccccc2)CC1 | inconclusive [inhibitor, partial curve] |  |
| O=C(Nc1cc2c3c(c1)CC(=O)N3CCC2)c1ccc(Br)o1 | inconclusive [inhibitor, single point] |  |
| COc1ccc(N2CCN(CCOc3ccc4c(C)cc(=O)oc4c3)CC2)cc1 | inconclusive [inhibitor, single point] |  |
| O=CC(=O)c1ccccc1 |  | inactive: 36.8% |
| CCOC(=O)C(=Cc1ccc(OCc2ccc([N+](=O)[O-])cc2)c(OC)c1)C(=O)OCC | inconclusive [inhibitor, single point] |  |
| CC(=O)c1ccc(S(=O)(=O)NCCC(=O)NCCc2c[nH]c3ccccc23)cc1 | inconclusive [inhibitor, single point] |  |
| CCOCCCN(CCC#N)C(=O)C1CCN(S(=O)(=O)c2ccc(-n3cnnn3)cc2)CC1 | inconclusive [inhibitor, partial curve, poor fit] |  |
| C#CCOc1coc(COC(=O)c2ccccc2)cc1=O |  | inactive: 7.97% |
| Cc1ccc2c(c1)C1CN(C)CCC1N2C(=O)c1cccc(S(=O)(=O)N(C)C)c1 (centres undefined) |  | inactive: 0% |
| CCOC(=O)C1=C(O)CSC1=Nc1ccc(C)cc1 | inconclusive [inhibitor, partial curve, poor fit] |  |
| Cc1cc(C)c(N=C2C(=O)Nc3ccccc32)c(C)c1 | inconclusive [inhibitor, partial curve, poor fit] |  |
| Cn1c(=O)c2c(nc(SCc3ccccn3)n2C)n(C)c1=O |  | inactive: 122% |
| COCCN(C(=O)COC(=O)c1ccc(C)s1)c1c(N)n(Cc2ccccc2)c(=O)[nH]c1=O |  | inactive: -0.83% |
| O=C1N(c2ccc(Cl)cc2)C(c2ccc(Cl)cc2)N2CCCN12 (centres undefined) | inconclusive [inhibitor, single point] |  |
| Cc1cc(C)cc(NC(=S)N2CCN(S(=O)(=O)c3ccccc3)CC2)c1 | inconclusive [inhibitor, full curve] |  |
| COc1ccc2nc(N3CCCC3)[nH]c2c1 |  | inactive: 61.1% |
| CC1(C)C2CCC1(C)C(OC(=O)CCn1ccnc1)C2 (centres undefined) | inconclusive [inhibitor, single point] |  |
| COc1ccccc1CNC(=O)C(=O)Nc1ccc(C(=O)N2CCC(C)CC2)cc1 | inconclusive [inhibitor, partial curve, poor fit] |  |
